In paper PMC12623964 (The EMBO Journal, 2025):

How the values were obtained:
Assay in all cases: fluorescence polarisation; steady-state fluorescence anisotropy; 100 nM AF-594-labeled DnaJB1-G194C titrated with fibrils (concentration as α-syn monomers); 3.5 h at 25 °C; 50 mM HEPES-KOH (pH 7.5), 50 mM KCl, 5 mM MgCl2, 2 mM DTT; equilibrium binding model
Settings in all cases: both partners purified
[1] = molecular target: α-synuclein fibrillar polymorph XG (human, UniProt P37840)
[2] = molecular target: α-synuclein fibrillar polymorph F65 (human, UniProt P37840)
[3] = molecular target: α-synuclein fibrillar polymorph Ri (ribbons) (human, UniProt P37840)
[4] = molecular target: T1, C-terminally truncated α-synuclein (aa 1–110) fibrillar polymorph F110 (human, UniProt P37840 fragment)
T1 construct: α-synuclein, human, residues 1-110 (C-terminal truncation), as amyloid fibrils; Amyloid fibril (many copies of the chain); Makky et al, 2016; also called F110 fibrils; C-terminal truncated mutant F110; source: recombinant; aggregated in 50 mM Tris-HCl 150 mM KCl, pH 7.5, 600 rpm

[5] = molecular target: α-synuclein fibrillar polymorph FM (human, UniProt P37840)
[6] = molecular target: α-synuclein fibrillar polymorph F91 (human, UniProt P37840)

Measured: binding result

B1: AF-594-labeled DnaJB1 mutant G194C (natural protein, human)
chain: MGKDYYQTLGLARGASDEEIKRAYRRQALRYHPDKNKEPGAEEKFKEIAEAYDVLSDPRKREIFDRYGEEGLKGSGPSGGSGGGANGTSFSYTFHGDPHAMFAEFFGGRNPFDTFFGQRNGEEGMDIDDPFSGFPMGMGGFTNVNFGRSRSAQEPARKKQ[skipping about 150 residues]PERIPQTSRTVLEQVLPI
modifications: Alexa Fluor 594 C5 maleimide on the free reactive cysteine (G194C)
notes: DnaJB1, J-domain protein co-chaperone of human Hsc70, with G194C for labelling; Labelling efficiency 90% or higher; also called DnaJB[…]C
binds: all assays above
